Out of some 310,000 compounds screened, about 2,200 (0.71%) showed an effect of 50% or more. Effects have a minus sign here. The list shows a part of the results.
biological target: human ether-à-go-go-related gene (hERG) potassium channel (human, UniProt Q12809); assay: primary screen, population patch clamp on CHO cells stably expressing hERG
Sequence (Q12809 whole entry, looked up): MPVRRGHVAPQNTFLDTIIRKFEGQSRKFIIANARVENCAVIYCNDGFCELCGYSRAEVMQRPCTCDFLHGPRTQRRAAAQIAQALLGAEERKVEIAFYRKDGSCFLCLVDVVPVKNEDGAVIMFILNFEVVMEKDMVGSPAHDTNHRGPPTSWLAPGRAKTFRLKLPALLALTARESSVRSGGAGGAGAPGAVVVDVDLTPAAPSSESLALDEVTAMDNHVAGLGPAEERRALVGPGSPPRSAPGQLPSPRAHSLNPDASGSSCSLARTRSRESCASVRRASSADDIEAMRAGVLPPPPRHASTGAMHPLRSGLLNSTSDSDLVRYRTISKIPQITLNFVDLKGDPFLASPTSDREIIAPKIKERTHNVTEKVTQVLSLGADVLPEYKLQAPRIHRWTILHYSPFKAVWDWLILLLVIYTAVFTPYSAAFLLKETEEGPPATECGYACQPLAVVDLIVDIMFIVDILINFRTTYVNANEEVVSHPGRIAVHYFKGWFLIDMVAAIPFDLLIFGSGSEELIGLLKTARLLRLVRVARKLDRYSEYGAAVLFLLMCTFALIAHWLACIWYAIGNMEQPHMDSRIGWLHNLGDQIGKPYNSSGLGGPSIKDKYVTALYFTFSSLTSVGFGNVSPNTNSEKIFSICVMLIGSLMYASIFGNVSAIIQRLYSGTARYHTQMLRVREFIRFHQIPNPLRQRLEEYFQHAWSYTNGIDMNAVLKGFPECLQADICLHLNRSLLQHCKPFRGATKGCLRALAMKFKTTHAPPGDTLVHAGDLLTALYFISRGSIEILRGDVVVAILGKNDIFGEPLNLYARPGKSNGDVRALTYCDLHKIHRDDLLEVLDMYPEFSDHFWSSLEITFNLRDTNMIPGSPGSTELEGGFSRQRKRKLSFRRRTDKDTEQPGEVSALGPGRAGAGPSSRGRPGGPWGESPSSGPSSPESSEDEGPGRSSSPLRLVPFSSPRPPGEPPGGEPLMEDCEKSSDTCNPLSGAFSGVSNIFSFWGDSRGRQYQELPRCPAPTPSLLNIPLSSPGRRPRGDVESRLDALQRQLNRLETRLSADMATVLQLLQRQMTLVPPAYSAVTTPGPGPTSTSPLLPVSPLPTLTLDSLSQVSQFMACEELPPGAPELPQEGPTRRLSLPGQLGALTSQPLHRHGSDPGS

Structure (SMILES) | hERG current change (%, negative = inhibition) at 1uM [%]
CCc1ccc(N2C(=O)Nc3ccc(Br)cc3C2(O)C(=O)NCCN(C)C)cc1 (stereo not drawn) | 6.27
Nc1ccccc1S(N)(=O)=O | 13.4
O=C(/C=C/c1ccccc1)NCC(=O)N/N=C/c1ccccc1[N+](=O)[O-] | 2.81
COCCCNC(=S)N1CCN(C(c2ccccc2)c2ccccc2)CC1 | 8.26
CCOC(=O)c1ccc(NC(=O)CCCN2C(=O)NC3(CCCC3)C2=O)cc1 | 6.26
CC(C)CNS(=O)(=O)c1ccc(S(=O)(=O)N2CCN(CCC#N)CC2)cc1 | 10.3
NC(=S)Cc1nc(-c2ccc(Cl)cc2)cs1 | 8.82
CSCC[C@H](Nc1ncnc2sc(C)c(C)c12)C(=O)O | 7.62
CCN(CCCNC(=O)CCn1c(=O)[nH]c2ccccc2c1=O)c1ccccc1 | 13.6
COc1cccc(-c2nnc3n2N=C(c2cccc(Br)c2)CS3)c1 | 4.8
Cl.Oc1ccc(C2=CCNCC2)cc1O | 10.3
Cc1cccc(/C=N/NC(=O)Cn2nc(C)cc2C)n1 | 11
Cc1nn(Cc2ccccc2)c(C)c1C(=O)N1CCN(S(=O)(=O)/C=C/c2ccccc2)CC1 | 7.19
Cn1cc([N+](=O)[O-])c(C(=O)Nc2cnn(Cc3ccc(F)cc3)c2)n1 | 5.82
COC(=O)c1[nH]c2c(c1C)C(=O)CC(c1ccccc1)C2 (stereo not drawn) | 9.13
CCOc1ccc(NC(=O)Nc2cc(C(=O)O)ccc2N2CC3CC(C2)c2cccc(=O)n2C3)cc1 (stereo not drawn) | 12.6
CCn1cc(CN2CCCC(CO)(Cc3cccc(Cl)c3)C2)cn1 (stereo not drawn) | 9.58
CCNC(=S)N(Cc1ccc2c(c1)OCO2)C1CC(=O)N(c2ccc(F)cc2)C1=O (stereo not drawn) | -1.66
Cn1nnnc1SCC(=O)NCc1cccs1 | 15.1

Structure (SMILES) | hERG current change (%, negative = inhibition) at 1uM [%]
COc1ccc(CNC(=O)c2cc(-c3ccco3)on2)cc1 | 1.92
O=C(CCl)NN=C(c1ccccc1)c1ccccc1 | 5.28
COc1ccc(C2=CC(=O)OC3(CCCCC3)O2)cc1 | -11.9
O=C(CC12CC3CC(CC(C3)C1)C2)NCc1ccncc1 | -4.22
N#CCSc1nc2ccccc2c(=O)n1C1CCCCC1 | 8.96
Cc1sc2nc(-c3cccnc3)[nH]c(=O)c2c1-c1ccccc1 | 0.0574
O=C(OCC(=O)c1ccc(Cl)s1)c1cnccn1 | 7.55
O=C(c1ccc(Cl)cc1)N1CCN(c2cc(=O)[nH]nc2-c2ccccc2)CC1 | -7.11
CCC(=O)Nc1ccc(C(=O)COC(=O)c2nc3nccc(C)n3n2)cc1 | -2.9
Cc1ccc2cc3cc(C(=O)N4CCCCC4C)oc3nc2c1 (stereo not drawn) | 7.78
O=C(CNC(=O)N1CC(=O)Nc2ccccc21)NCc1cccc(Cl)c1 | 12.2
Cn1c(=O)c2c(nc(NCc3ccco3)n2CCc2ccccc2)n(C)c1=O | -11.3
O=C(NC1CCCCCC1)C(=S)NCc1ccccc1 | 10.4
CCOCCCNC(=S)N1CCCN(c2nc3cc(C)ccc3cc2C#N)CC1 | 5.25
CCc1cccc(CC)c1NC(=O)COC(=O)c1ccccc1-c1nc2ccccc2s1 | 20.4
COc1ccc(Cl)cc1C(=O)N1CCC2(CC1)CC(=O)c1ccccc1O2 | -71.7
Clc1ccc(-n2nnnc2-c2cnc(-c3ccccn3)nc2-c2cccs2)cc1 | 2.12
CCOC(=O)c1c(NC(=O)C(C)N2CCN(C(=O)c3ccco3)CC2)sc2c1CCCC2 (stereo not drawn) | -13.9
CSc1nc2c(c(=O)[nH]c(=O)n2C)n1CCCc1ccccc1 | 17.6

Structure (SMILES) | hERG current change (%, negative = inhibition) at 1uM [%]
CSCc1c(C(=O)Nc2ccc3c(c2)OCO3)oc2ccccc12 | 14.9
Cc1cc(-c2ccccc2)nc(N/N=C/c2ccc([N+](=O)[O-])cc2)n1 | 7.63
O=C(Nc1ccc(F)c(Cl)c1)C1CC2CCC1C2 (stereo not drawn) | 12.3
Cc1cc(C)nc(SCC(=O)Nc2ccc(S(=O)(=O)NCCO)cc2)n1 | -1.09
O=C(Nc1ccc2c(c1)OCCO2)c1cccnc1 | 16.7
COc1ccc(-c2csc(NC3OC(=O)c4ccccc43)n2)cc1 (stereo not drawn) | 4.98
CCN1C(=O)[C@H]2[C@@H](c3ccc(C)cc3)N3C(=O)N(c4cccc(F)c4)C(=O)[C@@]3(CC)[C@H]2C1=O | 7.18
O=C(COc1ccc(CO)cc1)Nc1ccc(F)cc1 | 9.48
COc1ccc(S(=O)(=O)N2CCOC2CNC(=O)C(=O)NCc2ccc3c(c2)OCO3)cc1 (stereo not drawn) | -3.99
C#Cc1ccc([C@H]2C=C(C(=O)OCC=C)O[C@@H](OCc3ccc(CO)cc3)C2)cc1 | 2.09
Cc1ccc(/C=C/C(=O)Nc2nnc(SCc3ccc(C#N)cc3)s2)o1 | -6.21
Cc1nn(CCCC(=O)NC2CCC(C)CC2)c(=O)c2nn(-c3ccccc3)c(C)c12 (stereo not drawn) | 7.87
CC(=O)Nc1sc(C)c(C)c1C(=O)OCC(=O)N(CC(C)C)c1c(N)n(Cc2ccccc2)c(=O)[nH]c1=O | 6.48
O=C(O)c1ccccc1NCc1ccsc1 | 8.46
CC(NC(=O)C(Cc1ccccc1)NC(=O)c1ccccc1)C(=O)O (stereo not drawn) | 21
CC(=O)Nc1ccc(S(=O)(=O)Nc2nc3cc4c(cc3nc2Cl)OCCO4)cc1 | 7.87
Cc1ccc([N+](=O)[O-])cc1N=C(c1cccc(Br)c1)N1CCOCC1 | 4.72
OCCC1CN(Cc2cccc(-n3cccn3)c2)CCN1Cc1ccccc1 (stereo not drawn) | -13.4
O=C(c1cccc(Cl)c1)C1CCCN(Cc2ccc(N3CCNC3=O)cc2)C1 (stereo not drawn) | -7.54

From publication PMC4336329 (PLoS ONE, 2015)
